Results as given in the BET-seq Pho4 binding data (Le et al. 2018).
The other results are listed elsewhere or left out. The energies were worked out here from pooled read counts, against the library average; single values are noisy.

Molecular target: T1, Pho4 (S. cerevisiae) (UniProt P07270)
T1 sequence: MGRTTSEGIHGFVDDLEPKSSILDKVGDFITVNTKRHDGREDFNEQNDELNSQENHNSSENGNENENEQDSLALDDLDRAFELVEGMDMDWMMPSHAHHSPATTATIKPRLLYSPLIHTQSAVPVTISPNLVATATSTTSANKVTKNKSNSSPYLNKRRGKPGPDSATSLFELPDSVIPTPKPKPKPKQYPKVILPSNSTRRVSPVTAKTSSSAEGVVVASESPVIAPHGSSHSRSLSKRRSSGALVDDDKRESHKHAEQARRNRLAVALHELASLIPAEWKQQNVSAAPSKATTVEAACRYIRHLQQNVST
Experiment: relative binding free energy (BET-seq); higher = weaker binding
Details: reference: library average

| Sequence | relative binding free energy [kcal/mol] |
| --- | --- |
| GTTAACACGTGTTGGA | 0.16 |
| ATGTTCACGTGATAAT | 0.13 |
| CACGGCACGTGGTGTG | -0.06 |
| AGGCTCACGTGTGATT | 0.31 |
| GGGTCCACGTGGGCAT | -0.03 |
| CTTGTCACGTGAGTTA | 0.4 |
| ACGGTCACGTGTTGAA | 0.1 |
| TGGCTCACGTGGCAGG | 0.02 |
| GTTGACACGTGTTTCT | 0.14 |
| TGGCGCACGTGGTGGT | -0.08 |
| TTTTACACGTGGACGT | 0.09 |
| TTCGTCACGTGGTCAT | 0.04 |
| ACTGTCACGTGGAGGG | 0.01 |
| GCTTTCACGTGAGGGA | 0.4 |
| TACGGCACGTGCGGGG | -0.07 |
| TTAGACACGTGGGGCA | -0.13 |
| CTTTGCACGTGAGGGT | 0.27 |
| TTCTCCACGTGTTGGG | 0.09 |
| GGTATCACGTGTGCGC | 0.18 |
| GGCGGCACGTGTGATT | 0.1 |
| CTGGGCACGTGCGTTA | -0.11 |
| ATTTACACGTGTTGTG | 0.13 |
| GAACGCACGTGTGGAG | 0.09 |

| Sequence | relative binding free energy [kcal/mol] |
| --- | --- |
| TGCATCACGTGGGTGT | -0.14 |
| TATGTCACGTGTAAGG | 0.18 |
| GGGGCCACGTGAAAGG | 0.14 |
| TAATGCACGTGTAGAT | 0.21 |
| TTGGCCACGTGAGGCG | 0.22 |
| TGAGTCACGTGTCCGT | 0.2 |
| CTATTCACGTGATGTT | 0.22 |
| ATGTTCACGTGTAGCG | 0.23 |
| CGGGACACGTGTATGT | 0.05 |
| GCTTGCACGTGTTGAG | 0.03 |
| TTCGTCACGTGTGTCT | 0.04 |
| GGTTACACGTGAGTGC | 0.41 |
| TCGTGCACGTGTGATG | 0 |
| GTGGTCACGTGATGTG | 0.27 |
| TTGGGCACGTGTATAA | -0.14 |
| GTACTCACGTGGTGTG | 0.07 |
| ATAGCCACGTGGTAGG | -0.22 |
| TGTGACACGTGTATTG | 0.02 |
| AGTAGCACGTGAGTCG | 0.16 |
| TTAAGCACGTGGGTAG | -0.32 |
| TCGGTCACGTGTTCAG | 0.37 |
| GGTGTCACGTGGGTAT | 0.08 |
| TGAAGCACGTGGTTGA | -0.09 |

| Sequence | relative binding free energy [kcal/mol] |
| --- | --- |
| CTTGTCACGTGTGGCT | 0.04 |
| ATGGGCACGTGGGGCT | -0.22 |
| CTTTACACGTGTAGTA | 0.08 |
| GTTAACACGTGGGTAG | -0.07 |
| TTGGGCACGTGTACTC | 0.07 |
| ATGGGCACGTGTTCTA | -0.22 |
| GATTGCACGTGTGTTA | 0.11 |
| TGAGTCACGTGGACAG | 0.17 |
| TACAGCACGTGGTGTA | -0.12 |
| GTTCGCACGTGTGCGG | -0.06 |
| TGAGGCACGTGTCGCG | -0.03 |
| ATTTACACGTGTCATG | 0.07 |
| GAAGACACGTGGGGGC | -0.05 |
| AGCATCACGTGTTGTT | 0.04 |
| GTAGGCACGTGGAAGC | -0.05 |
| TGCTTCACGTGGTCTT | 0.29 |
| TTTGACACGTGAATCG | 0.3 |
| GGGCGCACGTGCTGTT | -0.18 |
| GAATTCACGTGTTGAG | 0.51 |
| ATTGTCACGTGGTCGT | -0.09 |
| TGGTGCACGTGAGGAC | 0.19 |
| AGAAACACGTGGTGGA | 0.04 |
| ATATTCACGTGAGTAA | 0.42 |

| Sequence | relative binding free energy [kcal/mol] |
| --- | --- |
| GGGTTCACGTGCATTT | 0.44 |
| ATAAGCACGTGGGCTA | -0.2 |
| TAGAACACGTGGGGAT | -0.03 |
| AGATGCACGTGCGAGT | -0.07 |
| TTGTGCACGTGGGATA | -0.1 |
| TGGTGCACGTGGGCAA | -0.07 |
| CATAGCACGTGAAGGG | 0.25 |
| TAAGGCACGTGCGGGT | -0.26 |
| GTTATCACGTGCAGGG | 0.05 |
| TAGTACACGTGGGATT | 0.03 |
| CAGTTCACGTGGGGAT | 0.16 |
| ACGTGCACGTGAGGGA | 0.1 |
| GTGCGCACGTGGGGAG | -0.12 |
| GAGGCCACGTGCGGTT | 0.02 |
| TGATTCACGTGATTGC | 0.35 |
| CGTCGCACGTGTGGTA | -0.09 |
| TTGGACACGTGAAGAA | 0.33 |
| AATGTCACGTGTGTAC | 0.32 |
| TCTAGCACGTGTTGGG | -0.02 |
| GTTGGCACGTGCATAG | -0.25 |
| ATCTGCACGTGTAAGG | 0.1 |
| AATTGCACGTGTTACT | 0.01 |
| GGTTGCACGTGGATGG | 0.04 |

| Sequence | relative binding free energy [kcal/mol] |
| --- | --- |
| GATGTCACGTGGAGAT | 0 |
| AAAGTCACGTGGTCTT | 0.04 |
| GAAAGCACGTGGGTTG | -0.15 |
| CTGGGCACGTGTCGAG | -0.03 |
| GTGTGCACGTGGTGTA | 0.02 |
| TTAGTCACGTGCAAGG | 0.11 |
| CGGTCCACGTGCGGGG | -0.2 |
| ATAGGCACGTGGTTGA | -0.22 |
| TGGTTCACGTGCGAGT | 0.25 |
| TAGCACACGTGTAGGT | 0.27 |
| ATCTGCACGTGATAGG | 0.12 |
| GTGGTCACGTGTAGCG | 0.24 |
| GTGTTCACGTGATGCA | 0.32 |
| TGTTGCACGTGCGGTA | 0.04 |
| TTTTACACGTGGTACT | 0.18 |
| AGGTCCACGTGTTTAA | 0.15 |
| GGAGGCACGTGGTGTC | -0.22 |
| GGACGCACGTGCATGG | 0.05 |
| GTAAGCACGTGAATGT | 0.29 |
| CGGCGCACGTGGGTGC | -0.33 |
| TGTAACACGTGGTCAT | -0.05 |
| TGTAACACGTGTAACG | 0.18 |
| ATGTACACGTGGAGCT | 0.06 |
